Source: PubChem BioAssay AID686979 (National Center for Advancing Translational Sciences (NCATS), 2013)
Where “and” joins values, the source holds several entries; their conditions need not be identical. Equal values may be shown once. In all, about 420,000 compounds went through this assay and about 50,000 (12%) were called active. The inconclusive results got no clear call from the source; some entries with a clear call stand among them for comparison. Calls follow the shape of the dose curve; as a rule, active = well fitted inhibition curve with a large enough effect; inconclusive = small, poorly fitted or top-dose-only effect; inactive = flat fitted curve, though single readings scatter. Where the call is inconclusive, the potency comes from a doubtful curve fit.

experiment: qHTS for Inhibitors of human tyrosyl-DNA phosphodiesterase 1 (TDP1): qHTS in cells in presence of CPT; settings: chicken DT40 Tdp1-/-;hTDP1 cells + 20 nM CPT, ATP luminescence, 48 h; activity change, negative = growth inhibition: at 46.2 µM (top of the series); also: nearly all actives have a fitted effect of over 55% in size
In short: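 Cell growth measured by CellTiter-Glo luminescence after a minimum 48 h, 37 C compound exposure with 20 nM CPT in Tdp1-knockout DT40 cells stably expressing hTDP1, seeded 400/well; qHTS titration format.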
% is scaled to controls: 0 for no effect and ±100 for the full control effect; potency is read from the fitted curve at half-maximal effect; tags tell the direction and shape of the fitted curve.

Compound	Potency	activity change, negative = growth inhibition
CN(C)CCCN(C(=O)c1ccco1)c1nc2ccc(Br)cc2s1	active: 23.1 µM	–
COc1cccc(NC(=O)CN2C(=O)COc3ccc(S(=O)(=O)N4CCCCCC4)cc32)c1	inconclusive: 20.6 µM [inhibitor, single point] and inconclusive: 18.4 µM [inhibitor, single point]	–
COc1cccc(N2C(=O)C(CC(=O)Nc3ccc(F)cc3)N(CCC3=CCCCC3)C2=O)c1 (centres undefined)	inconclusive: 29.1 µM [inhibitor, single point]	–
Cc1sc2c(c1C)CN(CCN1CCOCC1)CN2C(=O)c1ccccc1	inactive	–
COc1ccc(COC(=O)c2cccc(S(=O)(=O)N3CCN(C(C)=O)CC3)c2)cc1F	inconclusive: 23.1 µM [inhibitor, single point]	–
Cc1cccc2c1N(CCOc1ccccc1)C(=O)C2=O	active: 2.06 µM	–
COc1ccc(OC)c(-n2c(SCC(=O)NCc3ccco3)nnc2-c2c[nH]c3ccccc23)c1	inconclusive: 10.3 µM [inhibitor, partial curve]	–
Cc1cc(C)c(S(=O)(=O)CCC(C)C)c(=O)[nH]1	inactive	–
O=C(c1ccccc1Oc1ccc([N+](=O)[O-])cc1)N1CCOCC1	inactive	–
COc1ccccc1NC(CC(=O)c1ccccc1)C(=O)OCC(=O)c1ccc(F)cc1 (centres undefined)	inconclusive: 23.1 µM [inhibitor, single point]	–
COc1ccc(S(=O)(=O)NCc2cccnc2)cc1	inactive	–
COc1ccc(NC(=O)CN(C)S(=O)(=O)c2ccc(C(=O)N3CCOCC3)s2)cc1	inconclusive: 18.4 µM [inhibitor, partial curve]	–
COc1ccc(C)cc1NS(=O)(=O)c1ccc(NC(=O)CN(c2cc([N+](=O)[O-])ccc2C)S(C)(=O)=O)cc1	active: 9.2 µM	–
CC1(C)CC(=O)c2cnc(N3CCc4ccccc43)nc2C1	inconclusive: 20.6 µM [inhibitor, single point]	–
Cc1cc(-c2ccccc2)nc(SCC(=O)c2cccc([N+](=O)[O-])c2)n1	inconclusive: 23.1 µM [inhibitor, single point]	–
Cc1ccc(C(O)c2ccc(-n3ccnc3)cc2)cc1 (centres undefined)	inconclusive: 25.9 µM [inhibitor, single point]	–
O=C(/C=C\c1ccccc1OC(=O)c1ccccc1F)c1cc2ccccc2o1	active: 8.2 µM	–
C/C=C/c1ccc(OCCCN2C(=O)NC(C)(C)C2=O)c(OC)c1	inactive	–
CC(C)(C)OC(=O)NOCC(=O)N(Cc1ccccc1)CC(O)COc1ccccc1 (centres undefined)	inconclusive: 25.9 µM [inhibitor, single point]	–
Cc1cccc(C)c1OCC(=O)N1CCC(c2nc3ccccc3o2)CC1	inconclusive: 23.1 µM [inhibitor, single point]	–
COc1ccc(S(=O)(=O)NC2CCCCC2)cc1-n1cnnn1	inactive	–
Nc1c(C(=O)NCc2ccc3c(c2)OCO3)nnn1CC(=O)Nc1ccc(Br)cc1	inconclusive: 29.1 µM [inhibitor, single point]	–
O=C(Nc1ccccc1Cl)C1CCN(Cc2cnn(-c3ccccc3)c2-n2cccc2)CC1	active: 16.4 µM	–

Compound	Potency	activity change, negative = growth inhibition
NNC(=S)Nc1ccc(C(F)(F)F)cc1Cl	inconclusive: 29.1 µM [inhibitor, single point]	–
CCc1ccc(-c2cc(C)no2)cc1S(=O)(=O)Nc1ccc(Cl)cn1	inactive and inconclusive: 16.4 µM [inhibitor, single point]	–
Cn1c(COc2ccc(Cl)cc2)nnc1SCc1ncc(-c2ccccc2)o1	inconclusive: 18.4 µM [inhibitor, single point]	–
Cc1nc(-c2nnc(SCC(=O)Nc3cc(C(F)(F)F)cc(C(F)(F)F)c3)n2C)cs1	inconclusive: 11.6 µM [inhibitor, partial curve, poor fit]	–
Cc1ccc(Cn2cc(C(=O)c3ccc(C)cc3)c(=O)c3ccc(C)nc32)cc1	inconclusive: 20.6 µM [inhibitor, single point]	–
CC(=O)N1CCCc2cc(S(=O)(=O)N3CCCC(C(=O)NCc4ccccc4)C3)ccc21 (centres undefined)	inconclusive: 18.4 µM [inhibitor, single point] and inconclusive: 580 nM [inhibitor, partial curve]	–
COc1ccc(Cl)cc1NC(=O)CSc1nc(C)cc(C)n1	inconclusive: 25.9 µM [inhibitor, single point]	–
COCc1cc(C)nc(OCC(=O)N/N=C/c2cccc(OC)c2)c1C#N	inactive	–
CC(=O)Nc1ccc(S(=O)(=O)Nc2nc3ccccc3s2)cc1	inactive	–
Cc1cc(OCC(=O)NCc2ccccn2)c2c(C)c(Cc3ccccc3)c(=O)oc2c1	inconclusive: 29.1 µM [inhibitor, single point]	–
Cc1cccc(NC(=O)CSc2cn(CC(=O)N3CCCC3)c3ccccc23)c1C	inactive	–
COc1cccc(-c2noc(CCCC(=O)Nc3ccc(C(N)=O)cc3)n2)c1	inconclusive: 23.1 µM [inhibitor, single point]	–
O=C(CN1CCN(c2ccc(O)cc2)CC1)Nc1cc(S(=O)(=O)N2CCCC2)ccc1Cl	inconclusive: 29.1 µM [inhibitor, single point]	–
CC1(C(=O)Nc2ccc3c(c2)OCCO3)CN(S(C)(=O)=O)CC(=O)N1CCc1ccc(O)cc1 (centres undefined)	inactive	–
CC(C)(C)Cc1c(-c2cccc(Br)c2)nc2ccc(Br)cn12	inconclusive: 0.58 µM [inhibitor, full curve, poor fit]	–
Cc1ccc(NC(=O)CNc2ccc(Cl)cc2F)cc1	inactive	–
Fc1ccc(OCCCCN2CCOCC2)cc1	inactive	–
Cc1cc(SCC(=O)Nc2ccc(Cl)cc2)nc2ccccc12	inactive	–
CCOc1ccccc1-n1c(CN2CCN(C(=O)c3ccco3)CC2)nc2ccccc2c1=O	inconclusive: 25.9 µM [inhibitor, single point]	–
COC(=O)c1cc(S(=O)(=O)NCc2ccccc2)c[nH]1	inactive	–
O=C(NCc1cccnc1)C(=O)NCC(c1ccco1)N1CCN(c2ccccc2)CC1 (centres undefined)	inconclusive: 16.4 µM [inhibitor, single point]	–
Cc1cccc(N2CCN(C(=O)C3CCN(Cc4nc(-c5ccc(Cl)cc5)oc4C)CC3)CC2)c1C	inconclusive: 13 µM [inhibitor, partial curve]	–
C=C1NN(Cc2ccccc2)C(=O)N1c1ccc(OCc2ccccc2)cc1	active: 11.2 µM	–

Compound	Potency	activity change, negative = growth inhibition
COc1ccc(C(=O)/C=C/c2ccc(F)cc2)c(OC(=O)c2ccc([N+](=O)[O-])cc2)c1	inconclusive: 29.1 µM [inhibitor, single point]	–
COc1ccc(N2CCN(C(=O)CSc3nnnn3-c3ccc4c(c3)OCCO4)CC2)cc1	inconclusive: 18.4 µM [inhibitor, single point]	–
Cc1ccc(CSCc2nnc(SCC(=O)N3CCN(c4ccccc4)CC3)n2C)cc1	inconclusive: 23.1 µM [inhibitor, single point]	–
Cc1nc(N2CCC(C)CC2)c2nnn(Cc3ccccc3)c2n1	inconclusive: 18.4 µM [inhibitor, single point]	–
CCn1cc(CN2CCc3c([nH]c4ccccc34)C2c2cccc(O)c2)c(C)n1 (centres undefined)	inactive	–
N#CC1(NC(=O)COC(=O)c2ccc(Cl)nc2)CCCCC1	inactive	–
CCc1ncc(CN2CCCC(C(=O)Nc3cccc(-c4cccc(C)c4)c3)C2)cn1 (centres undefined)	inconclusive: 18.4 µM [inhibitor, single point]	–
O=C(c1cc(COc2ccc(F)cc2F)on1)N1CCN(C2CCCC2)C(=O)C1	inconclusive: 20.6 µM [inhibitor, single point]	–
CN(C)c1ccc(/C=N/NC(=O)CCCCCNC(=O)c2ccccc2)cc1	inconclusive: 0.0164 µM [inhibitor, full curve, poor fit]	–
COc1ccc(C)cc1S(=O)(=O)Nc1cccc(-c2ccc(N3CCC(C)CC3)nn2)c1	inconclusive: 29.1 µM [inhibitor, single point]	–
COc1ccc(CNC(=O)c2ccc(N3CCC4(CC3)CC(c3ccc(Cl)cc3)=NO4)c(NC(=O)c3ccccc3)c2)cc1	inactive	–
Cc1ccc(C(=O)O)cc1NC(=O)CSc1ncnc2sc3c(c12)CCC3	–	inconclusive: -34% [inhibitor]
Cc1cccc(CSCc2ccc(C(=O)NCC3CCCO3)o2)c1 (centres undefined)	inconclusive: 25.9 µM [inhibitor, single point]	–
N#CCN(CC#N)C(=O)C1c2ccccc2Oc2ccccc21	inconclusive: 29.1 µM [inhibitor, single point]	–
O=C1CCN(C(=O)Nc2ccccc2Cl)N1	–	inconclusive: 2.04% [inhibitor]
CC1CCN(CC(=O)Nc2ccc(Cl)cc2[N+](=O)[O-])CC1	inconclusive: 18.4 µM [inhibitor, single point]	–
CC(=O)c1c(C)[nH]c(C(=O)Nc2cc(F)ccc2C)c1C	inactive	–
CCOC(=O)C1CCN(C(=O)CN2C(=O)c3ccccc3S2(=O)=O)CC1	inactive	–
CN(C)CCNC(=O)c1cccc(-c2cccc3nncn23)c1	inactive	–
OCCCNc1ncnc2oc(-c3ccccc3)c(-c3ccccc3)c12	inconclusive: 20.6 µM [inhibitor, single point]	–
C/C(=N\NC(N)=O)c1ccccc1Cl	inactive	–
CCOC(=O)c1ccc(Cn2c(-c3ccccc3)nnc2-c2ccccc2)o1	inconclusive: 16.4 µM [inhibitor, single point]	–
CCC1CN(C(=O)N2CCC(C(=O)NCc3cc(OC)ccc3OC)CC2)c2ccccc2O1 (centres undefined)	active: 18.4 µM	–
